# Laboratory results taken from the supplement of paper PMC6746778.
# Where a name gives a salt, the structure may show the parent alone. This is one part of the list. Most values come without repeats; read them as rough.
# What was measured:
# Test in all cases: proliferation Z-score within cell line (SRB, relative to all inhibitors screened on that line); triple-negative breast cancer lines and a kinase inhibitor library; SRB is the sulforhodamine B protein stain; higher = less growth inhibition (more resistant)
# Conditions in all cases: concentration: 1 µM; 4 days
# [1] = system: Bt20
# [2] = system: Bt549
# [3] = system: HCC1143
# [4] = system: HCC1806
# [5] = system: HCC1937
# [6] = system: HCC38
# [7] = system: HCC70
# [8] = system: Hs578T
# [9] = system: MDA-MB-231
# [10] = system: MDA-MB-435s
# [11] = system: MDA-MB-436
# [12] = system: MDA-MB-453
# [13] = system: MDA-MB-468
# [14] = system: SKBR7
# [15] = system: SUM1315MO2
# [16] = system: SUM149PT
# [17] = system: SUM159PT
# [18] = system: SUM185PE
# [19] = system: SUM229PE
# [20] = system: SUM52PE
# 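Note: Single-dose primary screen of a 378-member kinase inhibitor library in 96-well plates, with growth read as absorbance of protein-bound SRB dye after TCA fixation.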
Structure (SMILES),proliferation Z-score within cell line [1],proliferation Z-score within cell line [2],proliferation Z-score within cell line [3],proliferation Z-score within cell line [4],proliferation Z-score within cell line [5],proliferation Z-score within cell line [6],proliferation Z-score within cell line [7],proliferation Z-score within cell line [8],proliferation Z-score within cell line [9],proliferation Z-score within cell line [10],proliferation Z-score within cell line [11],proliferation Z-score within cell line [12],proliferation Z-score within cell line [13],proliferation Z-score within cell line [14],proliferation Z-score within cell line [15],proliferation Z-score within cell line [16],proliferation Z-score within cell line [17],proliferation Z-score within cell line [18],proliferation Z-score within cell line [19],proliferation Z-score within cell line [20]
C[C@]1(O)C[C@@H](c2nc(-c3ccc4ccc(-c5ccccc5)nc4c3)c3c(N)nccn32)C1 [OSI-906 (Linsitinib)],0.503,0.251,0.469,-0.247,0.706,0.0155,0.748,0.654,-0.0903,-0.48,0.392,-0.446,0.376,-1.31,-0.355,-0.353,0.131,0.175,-0.877,0.478
Cc1cc(O)c2c(c1)C(=O)c1cccc(O)c1C2=O [Chrysophanic Acid],0.843,0.815,0.744,0.651,0.889,0.648,0.632,0.794,0.888,0.947,0.537,0.905,1.07,0.294,1.22,0.929,0.452,1.1,0.379,1.04
COc1cc2nccc(Oc3ccc(NC(=O)NC4CC4)c(Cl)c3)c2cc1C(N)=O [Lenvatinib (E7080)],-0.195,0.542,-1.16,0.506,-0.0401,0.337,-1.22,0.417,0.58,0.509,-0.975,-0.0675,0.466,0.613,-1.34,-0.328,-1.94,-1.29,0.179,-1.38
"Cc1cc(Nc2cc(N3CCN(C)CC3)nc(Sc3ccc(NC(=O)C4CC4)cc3)n2)n[nH]1 [VX-680 (Tozasertib, MK-0457)]",-1.28,-1.02,0.707,-0.366,0.815,-1.14,0.72,-1.15,-1.47,-1.5,0.364,-0.657,-1.74,-0.989,-0.5,-0.449,0.551,-0.619,-1.13,-1.08
CCN(CC)CCCC(C)Nc1nc(C)cc(Nc2ccc3nc(C)cc(N)c3c2)n1 (stereo not given),0.576,0.631,0.434,0.649,0.516,0.292,0.411,0.474,0.873,0.795,0.824,0.705,0.842,0.647,1.01,0.832,0.408,0.853,0.563,1
CCNC(=O)Nc1ccc(-c2nc3c(c(N4CCOC[C@@H]4C)n2)CCN(C2COC2)C3)cc1,-2.01,-2.7,-1.29,-0.829,-2.38,-1.42,-2.81,-2.91,-1.29,-1.42,-2.5,-2.19,-1.52,-1.85,-1.67,-1.48,-1.85,-2.09,-1.42,-1.92
N=C(N)NC(=N)NCCc1ccccc1 [Phenformin HCl],0.674,0.569,0.845,0.74,0.726,0.667,0.609,0.554,0.897,1.07,0.52,0.99,1.06,0.59,1.15,0.982,0.695,0.931,0.888,1.16
COc1cc(N2CCC(N(C)C)CC2)ccc1Nc1ncc(Cl)c(Nc2ccccc2P(C)(C)=O)n1,-0.179,-1.78,-2.91,-2.47,-2.66,-3.44,-2.74,-2.36,-2.23,-1.71,-2.52,-1.53,-1.21,-1.65,-1.9,-2.57,-2.71,-1.91,-2.49,-1.84
O=C1NC(=O)C(=Cc2ccc(-c3ccc(F)cc3)o2)S1 (stereo in doubt),0.641,0.809,0.776,0.898,0.766,0.675,0.895,0.776,0.869,0.995,0.698,1.08,1.1,0.781,1.44,1.05,0.692,1.14,0.811,1.4
CNC(=O)c1nn(C)c2c1C(C)(C)Cc1cnc(Nc3ccc(N4CCN(C)CC4)cc3)nc1-2,-0.0243,-0.463,-1.05,-0.515,-0.466,-0.216,0.322,-0.0221,-1.25,-0.923,-1.03,-0.725,-0.411,-0.907,-0.699,-1.29,-0.339,0.119,-0.374,-0.445
Nc1ncnc2c1c(-c1cnc3[nH]ccc3c1)nn2C1CCCC1,-1.11,-1.24,-1.24,-1.06,-1.59,-1.67,-1.06,-1.8,-1.38,-1.16,-1.47,-1.34,-0.515,-1.36,-1.84,-1.51,-1.28,-1.29,-1.57,-1.23
